# Assay results reported in the supplement of paper PMC10326071.
# Several values for one entry are separate records, joined by “and”; a condition that tells them apart may be missing. Equal values may be shown once. Some of the results follow. Most values come without repeats; read them as rough.
# What was measured:
# [1] = test system: SARS-CoV-2 nsp3 SARS-unique domain core (SUD-core, nsp3 residues 413-676); experiment: dissociation rate constant koff (BLI); higher = faster dissociation; conditions: 100 µM; 25 °C
# [2] = test system: SARS-CoV-2 nsp3 SARS-unique domain core (SUD-core, nsp3 residues 413-676); experiment: apparent dissociation constant Kd (single-concentration BLI fit); higher = weaker binding; conditions: 100 µM; 25 °C
SMILES,dissociation rate constant koff [1],apparent dissociation constant Kd [2]
Nc1ccn([C@H]2CC[C@@H](CO)O2)c(=O)n1,0.0142 s⁻¹,108 µM
CC(C)(/C=C(\C#N)C(=O)N1CCC[C@@H](n2nc(-c3ccc(Oc4ccccc4)cc3F)c3c(N)ncnc32)C1)N1CCN(C2COC2)CC1,0.903 s⁻¹,2310 µM
O=C(Nc1ccc2[nH]nc(-c3ccncc3)c2c1)[C@@H]1CCN(CC(=O)N2CCN(c3ccc(-c4ncccn4)cc3)CC2)C1,0.599 s⁻¹,2430 µM
c1coc(CNc2ncnc3nc[nH]c23)c1,0.00931 s⁻¹,141 µM
COCc1c(-c2ccc(NC(=O)Nc3cc(C(F)(F)F)ccc3F)c(F)c2)c2c(N)ncnn2c1CN1CCOCC1,0.147 s⁻¹,3580 µM
Cc1cn([C@H]2C[C@H](O)[C@@H](CO)O2)c(=O)nc1N,0.0191 s⁻¹,89.9 µM
CN1CCC(COc2cnc(-c3cccc(Cn4nc(-c5cccc(C#N)c5)ccc4=O)c3)nc2)CC1,19.7 s⁻¹,27.4 µM
C=CC(=O)Nc1cccc(Nc2nc(Nc3ccc(NC4CN(CCF)C4)cc3OC)ncc2C(F)(F)F)c1,0.941 s⁻¹,1820 µM
CNC(=O)c1ccc(C)c(-n2c(C)cc(OCc3ccc(F)cc3F)c(Br)c2=O)c1,13.2 s⁻¹,499 µM
CCN(C)C(=O)c1ccc2c(C(=Nc3ccc(CN4CCCCC4)cc3)c3ccccc3)c(O)[nH]c2c1,0.688 s⁻¹,1140 µM
COc1ccc(F)c(F)c1C(=O)c1cnc(NC2CCN(S(C)(=O)=O)CC2)nc1N,0.613 s⁻¹,708 µM
CN1CCC(Nc2nc(Nc3ccc(Oc4ccccc4)cc3)c3c(=O)[nH]cc(Br)c3n2)CC1,0.024 s⁻¹,14900 µM
COc1ccc(C(OC[C@H]2O[C@@H](n3cnc4c(=O)[nH]c(NC(=O)C(C)C)nc43)C[C@@H]2O)(c2ccccc2)c2ccc(OC)cc2)cc1,0.448 s⁻¹,73.2 µM
CC(C)N1CCN(Cc2cnc(-c3cc(-c4cccc5[nH]ccc45)cc4[nH]ncc34)o2)CC1,0.0296 s⁻¹,26.2 µM
Nc1nc2c(ncn2[C@@H]2O[C@H](COP(=O)(O)OP(=O)(O)OP(=O)(O)O)[C@@H](O)[C@H]2O)c(=O)[nH]1,0.0343 s⁻¹,99.1 µM
CNc1ncc2cc(-c3ccc(-c4cccc(C)n4)cc3Cl)c(=O)n(CC3OCC(N)CO3)c2n1 (stereo not given),0.315 s⁻¹,5880 µM
COc1cccc(Nc2nc(NCC3CCCO3)c3ccccc3n2)c1 (stereo not given),0.211 s⁻¹,3710 µM
C[C@@]1(F)[C@H](O)[C@@H](CO)O[C@H]1n1ccc(=O)[nH]c1=O,0.00717 s⁻¹,39.7 µM
CCCC(=O)Nc1ncnc2c1ncn2[C@@H]1O[C@@H]2COP(=O)(O)O[C@H]2[C@H]1OC(=O)CCC,0.0143 s⁻¹,88.7 µM
CN1CCCN(C(=O)c2cccc(-c3ccc(/C=C4/C(=O)Nc5ccc(Cl)cc54)o3)c2)CC1,0.0205 s⁻¹ and 0.049 s⁻¹,18500 µM and 22700 µM
Cc1noc(C)c1-c1ccc(-c2cc(C(N)=O)c(NC(N)=O)s2)c(O[C@H]2CCNC2)c1,0.5 s⁻¹,1130 µM
O=C(NCCN1CCOCC1)c1cc2c(Oc3ccc(NC(=O)C4(C(=O)Nc5ccc(F)cc5)CC4)cc3)ccnc2[nH]1,0.486 s⁻¹,3140 µM
Cc1nc(Nc2cnn(C3CCNCC3)c2)nc2c1N(C)C(=O)c1cc3ccccc3cc1N2C,0.521 s⁻¹,13200 µM
CO[C@@H]1[C@H](O)[C@@H](CO)O[C@H]1n1ccc(=O)[nH]c1=O,0.415 s⁻¹,2490 µM

SMILES,dissociation rate constant koff [1],apparent dissociation constant Kd [2]
CN1CC[C@@H](c2c(O)cc(O)c3c(=O)cc(-c4ccc(C(F)(F)F)cc4Cl)oc23)[C@@H]1CO,0.581 s⁻¹,1400 µM
C=CC(=O)Nc1cccc(C)c1Nc1ncc2cc(-c3c(Cl)c(OC)cc(OC)c3Cl)ccc2n1,0.201 s⁻¹,1230 µM
CN[C@@H](C)[C@H]1[C@H](O)C[C@@]2(C)[C@@H]3CC[C@H]4C(C)(C)[C@@H](NC)CC[C@@]45C[C@@]35CC[C@]12C,0.0819 s⁻¹,17.8 µM
O=c1ccn([C@@H]2O[C@H](COP(=O)(O)OP(=O)(O)O)[C@@H](O)[C@H]2O)c(=O)[nH]1,0.0116 s⁻¹,223 µM
CC#CC(=O)N[C@H]1CCCN(c2c(F)cc(C(N)=O)c3[nH]c(C)c(C)c23)C1,0.354 s⁻¹,2270 µM
CN(C)C(=O)c1cc2cnc(Nc3ccc(N4CCNCC4)cn3)nc2n1C1CCCC1,0.0475 s⁻¹,20.2 µM
CCc1cccc(CC)c1NC(=O)c1nn(C)c2c1CCc1cnc(Nc3ccc(C(=O)NC4CCN(C)CC4)cc3OC(F)(F)F)nc1-2,0.0305 s⁻¹,3780 µM
NC(=O)c1ccc2nc(-c3ccc(C4(N)CCC4)cc3)c(-c3ccccc3)n2n1,0.375 s⁻¹,426 µM
CC(C)(C)c1cc(C=C(C#N)C#N)cc(C(C)(C)C)c1O,0.116 s⁻¹,7800 µM
O=c1ccn2c(n1)O[C@H]1[C@H](O)[C@@H](CO)O[C@H]12,0.00911 s⁻¹,40.2 µM
Nc1ncnc2c1C(Nc1ccc(F)cc1)N=N2 (stereo not given),0.047 s⁻¹,6960 µM
O=C1Nc2ccc(I)cc2/C1=C/c1cc(Br)c(O)c(Br)c1,0.0638 s⁻¹,450 µM
CN1CCC(c2ccccc2CC(C)(C)Nc2nc(N3CCOCC3)nc(-n3c(S(C)(=O)=O)nc4ccccc43)n2)CC1,0.736 s⁻¹,2520 µM
COc1cc(N2CCOCC2)ccc1Nc1ncc(Cl)c(Nc2ccccc2NS(C)(=O)=O)n1,1.3 s⁻¹,1430 µM
CNC(=O)[C@H]1O[C@@H](n2cnc3c(NCc4cccc(I)c4)nc(Cl)nc32)[C@H](O)[C@@H]1O,0.481 s⁻¹,969 µM
Cc1ccc(-c2csc3ncnc(SCCC(=O)O)c23)cc1,0.0503 s⁻¹,99.4 µM
N#Cc1ccnc(Nc2cc(C3CCN(C4COC4)CC3)cc(N3CCC(F)(F)C3)n2)c1,0.0846 s⁻¹,3320 µM
CCn1nnc2c(N3CCOCC3)nc(-c3ccc(NC(=O)Nc4ccc(C(=O)N5CCN(C)CC5)cc4)cc3)nc21,0.422 s⁻¹,272 µM
NCCNC(=O)Cc1ccc(NC(=O)Cc2ccc(Nc3ncnc4c3ncn4[C@@H]3O[C@H](CO)[C@@H](O)[C@H]3O)cc2)cc1,0.0139 s⁻¹,215 µM
C[C@@H](N)COc1ccc(-c2cnc3ccc(N[C@H](C)c4cccc(F)c4)nn23)cc1,0.329 s⁻¹,1890 µM
COc1cc2nccc(Oc3ccc(NC(=O)Cc4ccc(Cl)c(C(F)(F)F)c4)cc3)c2cc1OC,0.0133 s⁻¹,283 µM
O=c1[nH]cnc2nc[nH]c12,0.0174 s⁻¹,122 µM
O=c1[nH]c(=O)c2ncn([C@@H]3O[C@H](CO)[C@@H](O)[C@H]3O)c2[nH]1,0.0131 s⁻¹,151 µM
CS(=O)(=O)N1CCN(Cc2cc3nc(-c4cccc5[nH]ncc45)nc(N4CCOCC4)c3s2)CC1,0.134 s⁻¹,603 µM

SMILES,dissociation rate constant koff [1],apparent dissociation constant Kd [2]
Cc1cc(Nc2cc(N)ncn2)c(=O)n2c1C(=O)NC21CCCCC1,0.129 s⁻¹,1300 µM
C=C1[C@H](CO)[C@@H](O)C[C@@H]1n1cnc2c(=O)[nH]c(N)nc21,0.0258 s⁻¹,202 µM
C[C@@H]1CC[C@@]2(OC1)O[C@H]1C[C@H]3[C@@H]4CC=C5C[C@@H](O[C@@H]6O[C@H](CO)[C@@H](O[C@@H]7O[C@@H](C)[C@H](O[C@@H]8O[C@@H](C)[C@H](O)[C@@H](O)[C@H]8O)[C@@H](O)[C@H]7O)[C@H](O)[C@H]6O[C@@H]6O[C@@H](C)[C@H](O)[C@@H](O)[C@H]6O)CC[C@]5(C)[C@H]4CC[C@]3(C)[C@@]1(O)[C@@H]2C,1.7 s⁻¹,1260 µM
CNC(=O)c1cc(Oc2ccc(NC(=O)Nc3ccc(Cl)c(C(F)(F)F)c3)cc2)ccn1,0.0296 s⁻¹,128 µM
C[C@@H](Oc1cc(-n2cnc3ccc(CN4CCN(C)CC4)cc32)sc1C(N)=O)c1ccccc1C(F)(F)F,0.502 s⁻¹,1490 µM
COc1ccc(C(OC[C@H]2O[C@@H](n3cnc4c(NC(=O)c5ccccc5)ncnc43)[C@H](O)[C@@H]2O[Si](C)(C)C(C)(C)C)(c2ccccc2)c2ccc(OC)cc2)cc1,0.19 s⁻¹,174 µM
C[N+](C)(C)CCOP(=O)(O)OP(=O)([O-])OC[C@H]1O[C@@H](n2ccc(N)nc2=O)[C@H](O)[C@@H]1O,0.0201 s⁻¹,562 µM
C[C@H]1O[C@@H](n2cnc3c(N)ncnc32)C[C@@H]1O,0.527 s⁻¹,1570 µM
Cc1cc2cc(Oc3ccnc(Nc4cccc(CS(=O)(=O)NCCN(C)C)c4)n3)ccc2[nH]1,0.156 s⁻¹,221 µM
O=C1C=CC2=C3c4cc(O)c(O)cc4CC3(O)COC2=C1O (stereo not given),0.000887 s⁻¹,4.65 µM
C=CC(=O)N1CCC([C@@H]2CCNc3c(C(N)=O)c(-c4ccc(Oc5ccccc5)cc4)nn32)CC1,0.879 s⁻¹,2700 µM
Nc1nc(N[C@H]2C[C@@H]3CC[C@H]2C3)sc1C(=O)c1ccccc1[N+](=O)[O-],0.0493 s⁻¹,6.51 µM
NC(=O)Nc1sc(-c2ccc(F)cc2)cc1C(N)=O,0.772 s⁻¹,1030 µM
C[C@@H](Oc1ccc2[nH]nc(/C=C/c3cnn(CCO)c3)c2c1)c1c(Cl)cncc1Cl,0.047 s⁻¹,101 µM
Cc1cn([C@H]2C[C@H](O)[C@@H](CO)O2)c(=O)[nH]c1=O,0.0131 s⁻¹,88.7 µM
O=c1oc2ccccc2c(O)c1Cc1c(O)c2ccccc2oc1=O,1.62 s⁻¹,1610 µM
O=c1[nH]c(=O)n([C@H]2C[C@H](O)[C@@H](CO)O2)cc1Cl,0.0103 s⁻¹,52.1 µM
NC(=O)Nc1cc(-c2cccc(F)c2)sc1C(=O)N[C@H]1CCCNC1,0.232 s⁻¹,163 µM
Cc1ccc(C(=O)Nc2ccc(CN3CCN(C)CC3)c(C(F)(F)F)c2)cc1C#Cc1cnc2[nH]ncc2c1,0.00115 s⁻¹,92.1 µM
C[C@H](c1ccnc(Nc2nc3ccc(-c4cc(N(C)C)ncn4)cc3[nH]2)c1)N1CCN(C(=O)CC(F)(F)F)CC1,0.0146 s⁻¹,36.7 µM
C=C1C(=O)[C@]23[C@H](O)[C@H]1CC[C@H]2[C@@]12CO[C@]3(O)[C@@H](O)[C@@H]1C(C)(C)CC[C@@H]2O,0.265 s⁻¹,3160 µM
COc1cc2nccc(Oc3ccc(NC(=O)C4(C(=O)Nc5ccc(F)cc5)CC4)cc3)c2cc1OC,0.211 s⁻¹,2260 µM
